# In PubChem BioAssay AID1346428 (National Center for Advancing Translational Sciences (NCATS), 2018):
# The campaign covered roughly 48,000 compounds. About 1,200 (2.5%) were called active. Not shown: some 2% with an inconclusive outcome.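 The calls were made as follows: active = activation of at least 60% and not above a set upper limit (about 1 call in 100 departs from these limits); inconclusive = activation of 40% to 60%, or above that upper limit; inactive = activation under 40%.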 This is one part of the list.
# Biological target: Probable G-protein coupled receptor 32 (Homo sapiens) (UniProt O75388)
# Assay: qHTS for Agonists of Human Resolvin D1 Receptor DRV1; also: 0% is about no effect
# Details: CHO-K1 GPR32 beta-arrestin PathHunter luminescence, 90 min; at 76.9 µM; active compounds read high; zero percent set by DMSO-only wells
# Outline: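 CHO-K1 cells stably expressing ProLink-tagged GPR32 and Enzyme Activator-tagged beta-arrestin were seeded at 2,500 cells/well overnight, exposed to compounds for 90 min at 37 °C, then read by beta-Gal complementation chemiluminescence after 1 h detection reagent.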
# Sequence of UniProt O75388 (O75388 whole entry, looked up): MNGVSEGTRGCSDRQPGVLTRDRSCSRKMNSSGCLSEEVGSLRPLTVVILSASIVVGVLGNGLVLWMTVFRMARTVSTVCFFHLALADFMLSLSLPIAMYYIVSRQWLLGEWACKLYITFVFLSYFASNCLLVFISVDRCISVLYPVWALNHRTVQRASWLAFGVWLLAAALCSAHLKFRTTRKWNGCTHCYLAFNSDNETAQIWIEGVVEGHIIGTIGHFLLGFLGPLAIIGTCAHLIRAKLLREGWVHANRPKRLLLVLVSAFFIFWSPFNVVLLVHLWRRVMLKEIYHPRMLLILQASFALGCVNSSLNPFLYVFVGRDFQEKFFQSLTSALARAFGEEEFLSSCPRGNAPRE
row,Compound,activation
1,COc1ccc(Cc2nc3ccc(C(=O)NCCc4ccccc4)cc3o2)cc1,inactive: -23.9%
2,CCc1ccccc1-n1c2c(cc(-c3nc(-c4ccc(Cl)cc4)cs3)c1=O)C(=O)CC(C)(C)C2,inactive: 3.85%
3,COc1ccc(CNC(=O)c2ccc3c(c2)CCN3S(=O)(=O)c2ccc(Cl)cc2)cc1,inactive: -6.93%
4,Cc1ccc(-c2nn3c(=O)cc(CN4CCN(S(=O)(=O)c5ccc(Cl)cc5)CC4)nc3s2)cc1,inactive: -3.42%
5,COc1cccc(NC(=O)C2CCN(c3cc(C)nc4c(-c5ccc(Cl)cc5)c(C)nn34)CC2)c1,inactive: -2.14%
6,O=C(COc1ccc(F)cc1)NC1CC(=O)N(c2ccc3c(c2)OCCO3)C1 (configuration not stated),active: 115%
7,COc1cc2nc(SCC(=O)Nc3cccc(C)c3)n3nc(CCn4c(C)nc5ccccc54)nc3c2cc1OC,inactive: -5.97%
8,CC(NC(=O)C1=Cc2ccccc2OC1)c1ccccc1 (configuration not stated),inactive: 1.33%
9,CC(=O)Nc1ccc(NC(=O)Cn2c(=O)ccc3cc(S(=O)(=O)N4CCC(C)CC4)ccc32)cc1,inactive: -21.4%
10,COC[C@@H](c1ccc(C(F)(F)F)cc1)N1CCN(C2(C)CCN(C(=O)c3c(C)ncnc3C)CC2)C[C@H]1C,inactive: -5.91%
11,CCOc1ccc(OCC)c(NS(=O)(=O)c2ccc3[nH]c(=O)ccc3c2)c1,inactive: -1.71%
12,Cc1cc(C)cc(NC(=O)CCS(=O)(=O)c2ccc3c(c2)oc(=O)n3C)c1,inactive: -10.6%
13,COC(=O)c1ccc2c(=O)n(CCCCCC(=O)NC(C)C)c(=O)[nH]c2c1,inactive: -26.2%
14,O=C(NCc1ccccc1)N1CCc2c(sc3c2CCCC3)C1c1ccccc1 (configuration not stated),inactive: -16.1%
15,O=C(Nc1nnc2n1CCS2)c1ccccc1,inactive: -57.1%
16,Cc1ccc(Cl)cc1NC(=O)N1CCc2cc(S(=O)(=O)N3CCC(C)CC3)ccc21,inactive: -27.4%
17,Cc1cccc(-n2ncc3c(N4CCN(CCO)CC4)ncnc32)c1,inactive: 36.4%
18,CCOc1ccc(C(=O)Nc2ccc3nc(SCC(=O)N(C)c4ccccc4)sc3c2)cc1,inactive: -3.95%
19,CCOC(=O)c1cc(-c2ccc(OC)cc2)n(CCC(=O)Nc2ccc(OC)cc2OC)c1C,inactive: -24.6%
20,CCOc1ccc(/C=C/c2nc3ccccc3n2S(=O)(=O)c2cccc(Cl)c2)cc1,active: 69.8%
21,COc1ccccc1CNC(=O)c1ccc(Nc2nc3ccccc3n3nnnc23)cc1,inactive: -6.45%

row,Compound,activation
1,CC1CCN(S(=O)(=O)c2ccc3nc(Nc4cccc(C(F)(F)F)c4)ccc3c2)CC1,inactive: -4.05%
2,COc1cccc(-c2nc(SCC(=O)NC3CCCC3)c(-c3ccc(F)cc3)[nH]2)c1,inactive: -13%
3,CC(C)c1ccc(/C=C(\C#N)c2nc(-c3cc4ccccc4oc3=O)cs2)cc1,inactive: 12.5%
4,O=C(CCCCCCCCC#CI)Oc1ccccc1,inactive: 6.26%
5,COc1ccc(C2=C(C)C(=O)N(Cc3ccc(C(=O)Nc4ccc(C)c(C)c4)cc3)S2(=O)=O)cc1,inactive: 16.1%
6,COc1cc(Cl)c(C)cc1NS(=O)(=O)c1c(C)nc2sccn2c1=O,inactive: -11.7%
7,COC(=O)c1ccc(Nc2ncnc3c2cnn3-c2ccccc2)cc1,inactive: -11.4%
8,CCOC(=O)CCn1cnc2onc(-c3ccccc3Cl)c2c1=O,inactive: -4.44%
9,CCOc1ccccc1NC(=O)C1=C(C)Nc2ncnn2C1c1ccccn1 (configuration not stated),inactive: 18.9%
10,CCOC(=O)C1(C)C=C(Nc2cccc(C)c2)C(=O)N1c1ccccc1 (configuration not stated),inactive: 2.51%
11,Cc1ccc(CNC(=O)c2nc(S(=O)(=O)Cc3ccc(C)cc3)ncc2Cl)cc1,inactive: 41.3%
12,COc1cc(-c2nnc(SCC(=O)Oc3ccc(C)cc3C)o2)cc(OC)c1OC,inactive: -9.8%
13,Cc1cc(C)cc(NC(=O)CCCn2nc(C)c3c(C)n(-c4ccccc4)nc3c2=O)c1,inactive: -6.48%
14,COc1cc(NC(=O)CCc2c(C)nc3c4c(C)cc(C)nc4nn3c2C)cc(OC)c1,inactive: 26.2%
15,COc1ccc(NC(=O)CN(c2ccccc2OC)S(C)(=O)=O)c(OC)c1,inactive: -2.29%
16,Cc1cccc(OCC(=O)Nc2ccccc2C(=O)OCc2cc(=O)n3nc(C4CC4)sc3n2)c1,inactive: -2.51%
17,CC(=O)c1cccc(NC(=O)CSc2nc3c(=O)n(C)c(=O)n(C)c3n2C)c1,inactive: -13.3%
18,CC(C)CCn1c(=O)c2sccc2n2c(CCCC(=O)NC(C)c3ccccc3)nnc12 (configuration not stated),inactive: -7.22%
19,Cc1cccc(-n2cnc3cc(C(=O)NC4CCCCCC4)ccc32)c1,inactive: -2.48%
20,Cc1cccc(N2CCN(c3nc4ccccc4c4nc(-c5cccnc5)nn34)CC2)c1C,inactive: 20%
21,Cc1ccc(CCNC(=O)c2cc3c(=O)n(C)c4ccccc4c3n2C)cc1,inactive: -11.4%
